Experimental data published in patent publication US20220064250A1 (AKSTON BIOSCIENCES, published 2022).

Biological target: T1, human insulin receptor on human IM-9 cells (human)
T1 construct: whole, on cells; Endogenous receptor on IM-9 cells; assay run at 4 C; also called IR
Assay: IM-9 cells, competition with biotinylated RHI, flow cytometry, 4 C (Table 5, same data as Table 9)
Procedure: Cultures of IM-9 cells were centrifuged at 250×g (˜1000 rpm) for 10 min to pellet the cells. Cells were washed once with HBSS or PBS buffer, resuspended in cold FACS staining medium (HBSS/2 mM EDTA/0.1% Na-azide+4% horse serum) to a concentration of 8×10^6 cells/mL and kept on ice or 4° C. until test solutions were made. The insulin-Fc protein was diluted in FACS buffer in 1:3 serial dilutions as 2× concentrations in 1.2 mL tubes (approx. 60 μL volume of each dilution), and the solutions were kept cold on ice until ready for pipetting.
Biotinylated-RHI was diluted in FACS staining medium to a concentration of 1.25 μg/mL. 40 μL of the serially diluted test compound and 8 μL of 1.25 μg/mL Biotin-RHI were added into each well of a V bottom microtiter plate, mixed by slow vortexing, and placed on ice. […]
The V-bottom plates containing cells were then analyzed on a Guava 8-HT flow cytometer (Millipore). Biotinylated-RHI binding to insulin receptor was quantitated by the median fluorescence intensity (MFI) of the cells on the FACS FL-2 channel for each concentration of the test compound. […] The % inhibition by test compounds of biotinylated-RHI binding on IM-9 cells was plotted against log concentrations of the test compound, and the resulting IC50 values were calculated using GraphPad Prism (GraphPad Software, La Jolla, Calif.) for the test compounds.

B1: insulin-Fc fusion protein of SEQ ID NO: 49 (insulin polypeptide SEQ ID NO: 24 with native B10H and A8T, linker SEQ ID NO: 25, canine IgGB Fc fragment with … (Fc fusion)
chain: FVNQHLCGSHLVEALALVCGERGFFYTDPTGGGPRR[about 20 residues not spelt out]GGGGAGGGGDCPKCPAPEMLGGPSVFIFPPKPKDTLLIARTPEVTCVVVDLDPEDPEVQISWFVDGKQMQTAKTQPREEQFQGTYRVVSVLPIGHQDWLKGKQFTCKVNNKALPSPIERTISKARGQAHQPSVYVLPPSREELSKNTVSLTCLIKDFFPPDIDVEWQSNGQQEPESKYRTTPPQLDEDGSYFLYSKLSVDKSRWQRGDTFICAVMHEALHNHYTQESLSHSPG
notes: Non-glycosylated homodimer made in HEK293 cells; also called cNg-NB139-Q
In the case of B1, the IC50 is reported as greater than 5 µM.
